Laboratory results as given in the supplement of paper PMC4967469.
IC50 is the fitted dose that halves viability relative to control wells, and lower means more sensitive; where the fit passes the top or lowest dose, that dose stands as a limit. For AUC the same curve is integrated over the 256-fold range of doses and scaled to a fraction; the more sensitive the line, the further below 1. For part of these data: Where the top dose is marked as inferred, it comes from the curve model; the source does not state it. For part of these data: Where an entry number is given, a second screen of the drug exists; the two often differ.

Experiments:
Test in all cases: Viability of human cancer cell lines after 72 h of drug (GDSC screen)
Bleomycin = compound: Cc1c(N)nc([C@H](CC(N)=O)NC[C@H](N)C(N)=O)nc1C(=O)N[C@H](C(=O)N[C@H](C)[C@@H](O)[C@H](C)C(=O)N[C@H](C(=O)NCCc1nc(-c2nc(C(=O)NCCC[S+](C)C)cs2)cs1)[C@@H](C)O)[C@@H](OC1OC(CO)C(O)C(O)C1OC1OC(CO)C(O)C(OC(N)=O)C1O)c1cnc[nH]1 [Bleomycin]
Procedure: (§1)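 Human cancer cell lines in 384-well plates, medium with 10% serum, drug for 72 h over a 256-fold dose range (nine 2-fold or five 4-fold steps up to the top dose). Adherent lines were fixed and stained with the nucleic acid dye Syto60, suspension lines read with resazurin; signal relative to control wells, capped at 0 and 100%. One two-parameter sigmoid per drug and line, fitted in a mixed model over all curves with the slope shared within a line.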

OSI-930 = compound: O=C(Nc1ccc(OC(F)(F)F)cc1)c1sccc1NCc1ccnc2ccccc12 [OSI-930]; details: top dose 10.24 µM
Procedure: as §1

VNLG/124 = compound: CCCC(=O)OCc1ccc(OC(=O)/C=C(C)/C=C/C=C(C)/C=C/C2=C(C)CCCC2(C)C)cc1 [VNLG/124]; details: top dose 5.12 µM; top dose inferred
Procedure: as §1

LAQ824 = compound: O=C(/C=C/c1ccc(CN(CCO)CCc2c[nH]c3ccccc23)cc1)NO [LAQ824]; details: top dose 1.024 µM; top dose inferred
Procedure: as §1

NSC-87877 = compound: O=S(=O)(O)c1ccc2cc(N=Nc3cc(S(=O)(=O)O)c4cccnc4c3O)ccc2c1 [NSC-87877]; details: top dose 16 µM; top dose inferred
Procedure: as §1

Tamoxifen = compound: CC/C(=C(\c1ccccc1)c1ccc(OCCN(C)C)cc1)c1ccccc1 [Tamoxifen]; details: top dose 5 µM
Procedure: as §1

Masitinib = compound: Cc1ccc(NC(=O)c2ccc(CN3CCN(C)CC3)cc2)cc1Nc1nc(-c2cccnc2)cs1 [Masitinib]; details: top dose 20 µM
Procedure: as §1

HG-5-88-01 = compound: COc1cc(N2CCC(C(N)=O)CC2)ccc1Nc1nc(N)c(Cl)c(Nc2ccccc2S(=O)(=O)C(C)C)n1 [HG-5-88-01]; details: top dose 10 µM; top dose inferred
Procedure: as §1

Elesclomol = compound: CN(NC(=O)CC(=O)NN(C)C(=S)c1ccccc1)C(=S)c1ccccc1 [Elesclomol]; details: top dose 0.2 µM; top dose inferred
Procedure: as §1

BX-912 = compound: O=C(Nc1cccc(Nc2ncc(Br)c(NCCc3cnc[nH]3)n2)c1)N1CCCC1 [BX-912]; details: top dose 10.24 µM; top dose inferred
Procedure: as §1

[1] = top dose 50 µM, screen: GDSC drug entry 1378, top dose inferred
[2] = top dose 64 µM, screen: GDSC drug entry 190

## NB1 (neuroblastoma, semi-adherent)
Bleomycin; [1]
  AUC: 0.856
  IC50: 47000 nM
Bleomycin; [2]
  AUC: 0.69
  IC50: 14500 nM
OSI-930
  AUC: 0.919
  IC50: > 10.2 µM
VNLG/124
  AUC: 0.984
  IC50: > 5.12 µM
LAQ824
  AUC: 0.478
  IC50: 55.5 nM
NSC-87877
  AUC: 0.983
  IC50: > 16 µM
Tamoxifen
  AUC: 0.963
  IC50: > 5 µM
Masitinib
  AUC: 0.702
  IC50: 4.94 µM
HG-5-88-01
  AUC: 0.219
  IC50: 0.0851 µM
Elesclomol
  AUC: 0.302
  IC50: 3.26 nM

## STS-0421 (soft tissue, adherent)
Bleomycin; [1]
  AUC: 0.444
  IC50: 2150 nM
Bleomycin; [2]
  AUC: 0.106
  IC50: < 250 nM
LAQ824
  AUC: 0.412
  IC50: 35.3 nM
NSC-87877
  AUC: 0.983
  IC50: > 16 µM
BX-912
  AUC: 0.539
  IC50: 0.831 µM
Tamoxifen
  AUC: 0.969
  IC50: > 5 µM
HG-5-88-01
  AUC: 0.895
  IC50: > 10 µM
Elesclomol
  AUC: 0.846
  IC50: 184 nM

## ES8 (Ewing sarcoma, adherent)
Bleomycin; [1]
  AUC: 0.144
  IC50: 275 nM
Bleomycin; [2]
  AUC: 0.44
  IC50: 2780 nM
OSI-930
  AUC: 0.951
  IC50: > 10.2 µM
VNLG/124
  AUC: 0.982
  IC50: > 5.12 µM
LAQ824
  AUC: 0.302
  IC50: 18.6 nM
NSC-87877
  AUC: 0.986
  IC50: > 16 µM
Tamoxifen
  AUC: 0.983
  IC50: > 5 µM
Masitinib
  AUC: 0.868
  IC50: 16 µM
HG-5-88-01
  AUC: 0.794
  IC50: 4.21 µM
Elesclomol
  AUC: 0.184
  IC50: 1.56 nM

## MOG-G-UVW (glioma, adherent)
Bleomycin; [1]
  AUC: 0.098
  IC50: < 195 nM
Bleomycin; [2]
  AUC: 0.33
  IC50: 1360 nM
OSI-930
  AUC: 0.973
  IC50: > 10.2 µM
VNLG/124
  AUC: 0.944
  IC50: > 5.12 µM
LAQ824
  AUC: 0.646
  IC50: 160 nM
BX-912
  AUC: 0.666
  IC50: 1.83 µM
Tamoxifen
  AUC: 0.98
  IC50: > 5 µM
Masitinib
  AUC: 0.892
  IC50: > 20 µM
HG-5-88-01
  AUC: 0.893
  IC50: > 10 µM
Elesclomol
  AUC: 0.269
  IC50: 2.81 nM

## H290 (mesothelioma, adherent)
Bleomycin; [1]
  AUC: 0.196
  IC50: 434 nM
Bleomycin; [2]
  AUC: 0.267
  IC50: 927 nM
OSI-930
  AUC: 0.971
  IC50: > 10.2 µM
LAQ824
  AUC: 0.405
  IC50: 36 nM
NSC-87877
  AUC: 0.988
  IC50: > 16 µM
BX-912
  AUC: 0.985
  IC50: > 10.2 µM
Tamoxifen
  AUC: 0.978
  IC50: > 5 µM
Masitinib
  AUC: 0.883
  IC50: 18.3 µM
HG-5-88-01
  AUC: 0.897
  IC50: > 10 µM
Elesclomol
  AUC: 0.558
  IC50: 17.8 nM

## NCI-H847 (small cell lung carcinoma, adherent)
Bleomycin; [1]
  AUC: 0.971
  IC50: > 50000 nM
Bleomycin; [2]
  AUC: 0.971
  IC50: > 64000 nM
OSI-930
  AUC: 0.884
  IC50: 7.44 µM
VNLG/124
  AUC: 0.962
  IC50: > 5.12 µM
LAQ824
  AUC: 0.269
  IC50: 16.4 nM
NSC-87877
  AUC: 0.989
  IC50: > 16 µM
Tamoxifen
  AUC: 0.991
  IC50: > 5 µM
Masitinib
  AUC: 0.875
  IC50: 13.5 µM
HG-5-88-01
  AUC: 0.949
  IC50: > 10 µM
Elesclomol
  AUC: 0.925
  IC50: > 200 nM

## LB647-SCLC (small cell lung carcinoma, semi-adherent)
Bleomycin; [1]
  AUC: 0.313
  IC50: 873 nM
Bleomycin; [2]
  AUC: 0.477
  IC50: 3430 nM
VNLG/124
  AUC: 0.976
  IC50: > 5.12 µM
LAQ824
  AUC: 0.286
  IC50: 14.6 nM
NSC-87877
  AUC: 0.982
  IC50: > 16 µM
BX-912
  AUC: 0.728
  IC50: 3.12 µM
Tamoxifen
  AUC: 0.983
  IC50: > 5 µM
HG-5-88-01
  AUC: 0.915
  IC50: > 10 µM
Elesclomol
  AUC: 0.487
  IC50: 11.4 nM

## SCC90 (head and neck, adherent)
Bleomycin; [1]
  AUC: 0.905
  IC50: > 50000 nM
Bleomycin; [2]
  AUC: 0.779
  IC50: 38500 nM
LAQ824
  AUC: 0.607
  IC50: 143 nM
NSC-87877
  AUC: 0.981
  IC50: > 16 µM
BX-912
  AUC: 0.714
  IC50: 3.39 µM
Tamoxifen
  AUC: 0.975
  IC50: > 5 µM
HG-5-88-01
  AUC: 0.927
  IC50: > 10 µM
Elesclomol
  AUC: 0.557
  IC50: 19 nM

## A375 (melanoma, adherent)
Bleomycin; [1]
  AUC: 0.099
  IC50: 221 nM
Bleomycin; [2]
  AUC: 0.113
  IC50: 323 nM
OSI-930
  AUC: 0.991
  IC50: > 10.2 µM
VNLG/124
  AUC: 0.987
  IC50: > 5.12 µM
LAQ824
  AUC: 0.393
  IC50: 34.5 nM
NSC-87877
  AUC: 0.988
  IC50: > 16 µM
BX-912
  AUC: 0.887
  IC50: 7.9 µM
Tamoxifen
  AUC: 0.991
  IC50: > 5 µM
HG-5-88-01
  AUC: 0.837
  IC50: 5.08 µM
Elesclomol
  AUC: 0.186
  IC50: 1.83 nM

## EoL-1-cell (haematopoietic neoplasm, suspension)
Bleomycin; [1]
  AUC: 0.532
  IC50: 3780 nM
Bleomycin; [2]
  AUC: 0.431
  IC50: 2650 nM
VNLG/124
  AUC: 0.469
  IC50: 0.266 µM
LAQ824
  AUC: 0.303
  IC50: 19.4 nM
NSC-87877
  AUC: 0.98
  IC50: > 16 µM
BX-912
  AUC: 0.188
  IC50: 0.0873 µM
Tamoxifen
  AUC: 0.934
  IC50: > 5 µM
Masitinib
  AUC: 0.132
  IC50: 0.107 µM
HG-5-88-01
  AUC: 0.878
  IC50: 8.08 µM
Elesclomol
  AUC: 0.542
  IC50: 16 nM

## JHU-029 (head and neck, adherent)
Bleomycin; [1]
  AUC: 0.178
  IC50: 254 nM
Bleomycin; [2]
  AUC: 0.333
  IC50: 1230 nM
LAQ824
  AUC: 0.236
  IC50: 8.97 nM
NSC-87877
  AUC: 0.961
  IC50: > 16 µM
Tamoxifen
  AUC: 0.914
  IC50: > 5 µM
HG-5-88-01
  AUC: 0.883
  IC50: > 10 µM
Elesclomol
  AUC: 0.5
  IC50: 12.5 nM

## KMH-2 (thyroid, adherent)
OSI-930
  AUC: 0.989
  IC50: > 10.2 µM
VNLG/124
  AUC: 0.98
  IC50: > 5.12 µM
LAQ824
  AUC: 0.347
  IC50: 25.4 nM
NSC-87877
  AUC: 0.99
  IC50: > 16 µM
BX-912
  AUC: 0.867
  IC50: 7.58 µM
Tamoxifen
  AUC: 0.983
  IC50: > 5 µM
Masitinib
  AUC: 0.885
  IC50: 17.8 µM
HG-5-88-01
  AUC: 0.847
  IC50: 6.19 µM
Elesclomol
  AUC: 0.668
  IC50: 34.7 nM
